Target: T1, human IGFBP-1 (human, UniProt P08833 26-259)
T1 construct: secreted recombinant protein purified from conditioned medium
T1 sequence (looked up): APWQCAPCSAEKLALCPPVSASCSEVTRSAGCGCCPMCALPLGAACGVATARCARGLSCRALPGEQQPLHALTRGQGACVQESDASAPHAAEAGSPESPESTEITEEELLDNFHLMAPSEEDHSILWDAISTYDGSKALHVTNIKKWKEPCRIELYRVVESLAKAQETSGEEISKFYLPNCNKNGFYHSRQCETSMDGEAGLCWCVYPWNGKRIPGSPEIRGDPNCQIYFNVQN
Assay: BIACORE, IGFBP-1 injected over Y31C IGF-I immobilized via disulfide linkage

B1: Y31C IGF-I (purified, soluble) (ligand)
chain: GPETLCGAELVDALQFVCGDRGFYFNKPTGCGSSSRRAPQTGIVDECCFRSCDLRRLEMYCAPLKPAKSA
notes: immobilized onto the sensor chip surface via a disulfide linkage through the unpaired Cys 31; also called single-cysteine IGF-I variant
**Q.** How did the Kd turn out when B1 was run?
**A.** The Kd was 0.01 µM.

**Q.** And the koff?
**A.** Its koff is 0.00038 s⁻¹.

**Q.** What about the kon of the same binder?
**A.** The kon was 39000 M⁻¹ s⁻¹.

From US20020160955A1 (published 2002)
